In PubChem BioAssay AID903 (National Center for Advancing Translational Sciences (NCATS), 2007):
About 340 (0.62%) of roughly 55,000 compounds were called active. The shares of active, inactive and inconclusive entries below differ from those in the screen. Calls follow the shape of the dose curve; as a rule, active = well fitted cell-killing curve with a large enough effect; inconclusive = small, poorly fitted or top-dose-only effect; inactive = no such curve, though single readings can be large or run the other way. Potencies of inconclusive entries are doubtful fits and often do not repeat.

Assay: qHTS Screen for Compounds that Selectively Target Cancer Cells with p53 Mutations: Cytotoxicity of p53 Null Cells at the Permissive Temperature; also: nearly all actives have a fitted effect of over 55% in size;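 as to activity change, negative = cytotoxicity: 0% = DMSO only and -100% = full killing by 100 µM tamoxifen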
Conditions: H1299-neo p53 null cells, ATP luminescence, 24 h, 32C; series mostly up to 46.1 µM; activity change, negative = cytotoxicity: at the top concentration
Procedure, shortened: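 Luminescent ATP readout gave cell viability of p53-null H1299-neo cells after a 24 h compound exposure at the permissive 32C. Titrations ran up to 46 uM, and AC50s were fitted with the standard Hill equation.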
Potency is read from the fitted curve at half-maximal effect; tags tell the direction and shape of the fitted curve.

SMILES	activity change, negative = cytotoxicity	Potency
COC(=O)c1c(NC(=O)c2ccc(S(=O)(=O)N3CCCCC3)cc2)sc2c1CCN(C)C2	inactive: -18.4%	–
COc1ccc2c(C)cc(SCC(=O)Nc3nsc(-c4ccc(C(C)(C)C)cc4)n3)nc2c1	–	inconclusive: 5.01 µM [cytotoxic, full curve]
Cc1ccccc1C(=O)Nc1ccccc1C(=O)OCc1cc(=O)n2nc(C3CC3)sc2n1	–	inconclusive: 5.62 µM [cytotoxic, single point]
COc1cc(NC(=O)c2cc(-c3ccccc3O)no2)cc(OC)c1OC	inactive: -6.77%	–
COC(=O)c1c(SCC(=O)Nc2cccc(C(F)(F)F)c2)[nH]c2ccccc2c1=O	–	inconclusive: 5.01 µM [cytotoxic, full curve]
CC(=O)c1cc(-c2ccccc2)n(CC(=O)NC2CCCCCC2)c1C	inactive: 14.5%	–
CN(c1cccc(NC(=O)COc2ccc(Cl)cc2Cl)c1)S(C)(=O)=O	–	inconclusive: 11.2 µM [cytotoxic, partial curve]
Clc1ccccc1-c1nnc(-c2ccccc2Cl)o1	–	inconclusive: 12.6 µM [cytotoxic, single point]
COc1ccc(N2CCN(CCCNC(=O)Nc3ccccc3Cl)CC2)cc1	inactive: -11.4%	–
CCC(CC)C(=O)Nc1c(C(=O)N2CCN(c3ccccc3F)CC2)oc2ccccc12	–	inconclusive: 31.6 µM [cytotoxic, single point]
CCOC(=O)CC(NC(=O)c1cc2cc(Cl)ccc2oc1=O)c1ccc(C)cc1 (stereo not given)	–	inconclusive: 20 µM [cytotoxic, single point]
Cc1cccc(NC(=O)Cn2c(=O)oc3cc(S(=O)(=O)NCc4ccccc4)ccc32)c1	–	inconclusive: 11.2 µM [cytotoxic, partial curve, poor fit]
Cc1ccc(C)c(S(=O)(=O)c2cnc(SCC(=O)Nc3ccc(F)cc3F)[nH]c2=O)c1	–	inconclusive: 12.6 µM [cytotoxic, partial curve, poor fit]
CCc1ccc2nc(N3CCC(C(=O)O)CC3)sc2c1	–	active: 7.94 µM
Cc1ccc(S(=O)(=O)Nc2cccc(-c3ccc(N4CCCCC4)nn3)c2)s1	–	active: 12.6 µM
CCC(C(=O)NC1CCCCC1)n1c(SCc2ccc(F)cc2)nc2ccncc21 (stereo not given)	–	inconclusive: 20 µM [cytotoxic, partial curve]
Cc1cc(C)nc(NS(=O)(=O)c2ccc(N=Cc3c(C)[nH]n(-c4ccccc4)c3=O)cc2)n1	–	inconclusive: 35.5 µM [cytotoxic, single point]
Cc1c(Cl)cccc1NC(=O)c1cc2sccc2n1Cc1ccc(F)cc1	–	inconclusive: 2.82 µM [cytotoxic, partial curve]
CCOC(=O)c1ccccc1NC(=O)c1ccc2c(Cl)c3c(nc2c1)CCC3	–	inconclusive: 20 µM [cytotoxic, partial curve]
CC1CCCCN1C(=O)CSc1n[nH]c(-c2ccccc2)n1 (stereo not given)	–	inconclusive: 35.5 µM [cytotoxic, single point]
COc1ccccc1C(=O)Nc1cc(-c2ccc(C)cc2)no1	–	inconclusive: 7.94 µM [cytotoxic, partial curve]
Cc1ccc(C(C)C)c(OCC(=O)Nc2cccc(-c3nc4ncccc4o3)c2)c1	–	inconclusive: 25.1 µM [cytotoxic, single point]

SMILES	activity change, negative = cytotoxicity	Potency
O=[N+]([O-])c1ccc(O)c(/C=N/Nc2ccccn2)c1	–	inconclusive: 0.562 µM [cytotoxic, full curve]
Cc1ccc2oc(=O)c3cnn(CC(=O)N4CCN(c5cccc(C(F)(F)F)c5)CC4)c3c2c1	–	inconclusive: 3.16 µM [cytotoxic, partial curve, poor fit]
CCc1ccc(NC(=O)C2CCCN(S(=O)(=O)c3cccc4cccnc34)C2)cc1 (stereo not given)	–	inconclusive: 35.5 µM [cytotoxic, single point]
CC(C)c1ccc(NC(=O)CSC2=Nc3ccccc3C3=NC(CCC(=O)NCc4ccc(F)cc4)C(=O)N23)cc1 (stereo not given)	inactive: 15.8%	–
COc1ccc(-c2nc(C)c(CCNC(=O)c3ccco3)s2)cc1	–	inconclusive: 5.01 µM [cytotoxic, single point]
CCCN1CCN(CCCNC(=O)c2ccc3c(c2)sc2nc(-c4ccc(OCC)cc4)cn23)CC1	–	inconclusive: 20 µM [cytotoxic, single point]
COC(=O)CSc1nnc(SCc2ccc(OC)cc2)s1	–	inconclusive: 20 µM [cytotoxic, single point]
CC(C)(C)c1ccc(C(=O)Nc2ccc(OCc3cc(=O)n4ccsc4n3)cc2)cc1	–	inconclusive: 6.31 µM [cytotoxic, single point]
COc1cccc(C(=O)Nc2ccc3nc4n(c(=O)c3c2)CCCCC4)c1	–	inconclusive: 15.8 µM [cytotoxic, partial curve]
COc1cc(CNCCSc2nnnn2C)ccc1OCc1ccccc1C	inactive: 8.65%	–
CC(C)c1ccc(/C=C(\C#N)c2nc(-c3ccc(O)cc3)cs2)cc1	–	inconclusive: 20 µM [cytotoxic, single point]
c1ccc(-c2nc(-c3ccccn3)no2)cc1	–	active: 5.62 µM
Cn1cc(-c2cc3n(n2)CCC(=O)N3CCCC(=O)Nc2ccccc2F)c2ccccc21	inactive: -2.37%	–
Cc1cc(C(=O)Nc2sc3c(c2C#N)CCCC3)no1	–	active: 14.1 µM
COc1ccc(-c2nc3ccccc3s2)cc1NC(C)=O	–	inconclusive: 2.51 µM [cytotoxic, partial curve, poor fit]
Cc1cc(C(=O)N2CCN(c3cc(Cl)ccc3C)CC2)c2c(C)nn(-c3ccccc3)c2n1	inactive: -4.73%	–
Clc1cccc(-n2ncc3c(N4CCCCCC4)ncnc32)c1	–	inconclusive: 3.16 µM [cytotoxic, full curve, poor fit]
Cc1cc(C)cc(NC(=O)Cn2c(=O)n(CC(=O)NCCc3ccccc3)c(=O)c3ccccc32)c1	–	inconclusive: 20 µM [cytotoxic, partial curve]
COc1ccc(/C=C/C(=O)c2ccc[nH]2)c(OC)c1OC	–	inconclusive: 11.2 µM [cytotoxic, partial curve]
COc1ccc(-c2noc(CSc3nnc(-c4ccncc4)n3-c3ccccc3)n2)cc1	inactive: -2.34%	–
CC(C)(C)c1ccc(CN2C3=NCCCN3c3ccccc32)cc1	–	inconclusive: 1.12 µM [cytotoxic, partial curve, poor fit]
Cc1ccc(C(=O)/C=C2/NC(=O)CS2)cc1	–	inconclusive: 15.8 µM [cytotoxic, partial curve]

SMILES	activity change, negative = cytotoxicity	Potency
CC1=C(C(N)=O)C(c2cccc(C)c2)n2nc(-c3ccc(Cl)cc3)nc2N1 (stereo not given)	–	inconclusive: 10 µM [cytotoxic, partial curve]
O=C(NCCCN1CCN(c2ccc(F)cc2)CC1)c1cc2c(s1)-c1ccccc1OC2	–	inconclusive: 31.6 µM [cytotoxic, single point]
CCOC(=O)N1CCc2c(sc3c2c(=O)n(Cc2ccccc2)c(=O)n3Cc2cccc(Cl)c2)C1	–	inconclusive: 4.47 µM [cytotoxic, partial curve, poor fit]
Cc1nn(CCCC(=O)NCc2ccccc2)c(=O)c2c1sc1ccccc12	–	inconclusive: 1.41 µM [cytotoxic, partial curve, poor fit]
O=C(CSc1ccc(-c2ccco2)nn1)NCc1ccc(Cl)cc1	inactive: -4.82%	–
O=S(=O)(Nc1nc2n(n1)C(c1ccccc1)C=C(c1ccc(Cl)cc1)N2)c1ccccc1 (stereo not given)	inactive: 1.06%	–
CCOc1ccc(-c2ccc(CO)o2)cc1N	–	inconclusive: 12.6 µM [cytotoxic, partial curve]
O=C(NCCCN1CCN(c2ccccc2)CC1)c1cc2c(s1)-c1ccccc1OC2	–	inconclusive: 31.6 µM [cytotoxic, single point]
COc1ccccc1N1CCN(C(=O)CSc2nc(-c3ccc(C(C)C)cc3)no2)CC1	–	inconclusive: 15.8 µM [cytotoxic, partial curve]
O=C(Nc1ccc2c(c1)N(C1CCCC1)C(=O)c1ccccc1S2)c1ccccc1	–	inconclusive: 5.01 µM [cytotoxic, full curve, poor fit]
CN(C)c1ccc(CNc2nc(-c3ccco3)nn2C(=O)c2cccc([N+](=O)[O-])c2)cc1	–	inconclusive: 20 µM [cytotoxic, partial curve]
CCOc1ccc(CNC(=O)CCn2cccn2)cc1OC	inactive: -6.23%	–
COC(=O)c1ccc(Nc2nc(-c3ccc(C)cc3)nc3ccccc23)cc1	–	inconclusive: 31.6 µM [cytotoxic, single point]
CC1=Nc2cc(C(=O)NC3CCC(C)CC3)ccc2Sc2c(C)ccc(C)c21 (stereo not given)	inactive: 26.7%	–
CC(C)Oc1ccc(CNC(=O)c2ccc(CS(=O)Cc3ccccc3Cl)o2)cc1 (stereo not given)	–	inconclusive: 25.1 µM [cytotoxic, single point]
Cc1ccc(C)c(NC(=O)CCc2nc3cccnc3n2Cc2cccs2)c1	–	inconclusive: 31.6 µM [cytotoxic, single point]
CCOC(=O)c1ccc(NC(=O)CSc2nnc(CNC(=O)c3ccc(OC)cc3)n2CC)cc1	inactive: -8.97%	–
O=C(NCCc1ccccc1)c1ccc(Cn2c(=O)c3cccn3c3cccnc32)cc1	inactive: -0.888%	–
O=C1CC(c2nc3ccccc3n2CCC2CCCCC2)CN1c1ccccc1Cl (stereo not given)	–	inconclusive: 31.6 µM [cytotoxic, single point]
Cn1c(=O)oc2cc(S(=O)(=O)N3CCCC(C(=O)N4CCN(c5ccc(Cl)cc5)CC4)C3)ccc21 (stereo not given)	inactive: -6.52%	–
CCOc1ccc(NC(=O)C2CCCN(c3nn4cc(-c5ccc(OC)cc5)nc4s3)C2)cc1 (stereo not given)	–	inconclusive: 11.2 µM [cytotoxic, partial curve]
